# Measured values from paper PMC4336329 (PLoS ONE, 2015).
# Hit rate of the full screen: of about 310,000 compounds, about 2,200 (0.71%) showed an effect of 50% or more. Effects have a minus sign here. This is one part of the list.
# Target: human ether-à-go-go-related gene (hERG) potassium channel (human, UniProt Q12809)
# Assay: primary screen, population patch clamp on CHO cells stably expressing hERG
# Experimental: Briefly, Chinese hamster ovary (CHO) cells stably expressing the hERG channel were dislodged from tissue culture flasks and dispensed into PPC plates. […] During the recording, background leak currents were estimated by a 100 ms step to -80 mV from an initial holding potential of -70 mV and subtracted from the subsequent current measurement. The campaign was conducted in two phases using slight differences in recording protocol. In the first phase, the initial voltage pulse used a 100 ms step to -30 mV from a holding potential of -70 mV, a 2 s conditioning step to +25 mV, and a 2 s test step to -30 mV. During the second phase of the screen, the potential during the conditioning step was raised to +45 mV. In both phases of the campaign, a secondary voltage pulse was applied using the same parameters as the second phase initial pulse. The initial and secondary pulses were applied in the absence of compound, and upon application of 1 μM and 10 μM test concentrations. Small molecule effects on hERG current density were quantified by […].
# Sequence of human ether-à-go-go-related gene (hERG) potassium channel (Q12809 whole entry, looked up): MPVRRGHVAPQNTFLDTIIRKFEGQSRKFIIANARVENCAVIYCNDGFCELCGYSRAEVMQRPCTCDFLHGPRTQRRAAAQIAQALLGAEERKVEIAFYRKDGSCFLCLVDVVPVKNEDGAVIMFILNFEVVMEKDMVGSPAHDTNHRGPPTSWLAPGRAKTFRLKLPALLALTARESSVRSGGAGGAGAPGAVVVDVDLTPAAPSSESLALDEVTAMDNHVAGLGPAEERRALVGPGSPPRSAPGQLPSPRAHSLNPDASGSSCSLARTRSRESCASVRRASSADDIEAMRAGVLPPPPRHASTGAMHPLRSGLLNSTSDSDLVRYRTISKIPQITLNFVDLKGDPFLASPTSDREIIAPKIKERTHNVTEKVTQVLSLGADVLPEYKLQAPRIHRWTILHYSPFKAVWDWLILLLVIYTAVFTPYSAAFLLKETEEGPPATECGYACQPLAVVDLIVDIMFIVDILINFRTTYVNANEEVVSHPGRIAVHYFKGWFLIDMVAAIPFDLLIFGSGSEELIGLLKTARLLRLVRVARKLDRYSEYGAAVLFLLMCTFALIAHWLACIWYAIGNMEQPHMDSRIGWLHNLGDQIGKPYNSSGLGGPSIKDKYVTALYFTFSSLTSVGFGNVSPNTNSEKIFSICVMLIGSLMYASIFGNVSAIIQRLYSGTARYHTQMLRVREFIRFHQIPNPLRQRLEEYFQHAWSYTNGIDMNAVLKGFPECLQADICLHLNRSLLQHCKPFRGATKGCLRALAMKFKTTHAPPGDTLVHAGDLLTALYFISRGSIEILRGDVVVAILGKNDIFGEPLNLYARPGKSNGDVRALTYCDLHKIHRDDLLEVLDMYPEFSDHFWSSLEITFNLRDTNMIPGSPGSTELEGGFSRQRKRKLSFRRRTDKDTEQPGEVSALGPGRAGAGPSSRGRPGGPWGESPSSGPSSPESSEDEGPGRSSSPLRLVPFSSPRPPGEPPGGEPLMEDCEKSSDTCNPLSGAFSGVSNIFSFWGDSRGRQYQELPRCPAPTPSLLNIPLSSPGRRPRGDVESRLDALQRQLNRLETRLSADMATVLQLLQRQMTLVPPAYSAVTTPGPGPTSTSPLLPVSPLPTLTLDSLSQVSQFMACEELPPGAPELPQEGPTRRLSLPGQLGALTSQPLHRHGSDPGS
row,SMILES,"hERG current change (%, negative = inhibition) at 1uM"
1,CN1C(=O)C(c2ccc([N+](=O)[O-])cc2[N+](=O)[O-])C(=O)N(C)C1=O,15.2%
2,CCc1cc(=O)oc2cc(C)cc(OC(C)C(=O)NCc3ccncc3)c12 (stereo not drawn),-14%
3,COc1cc(NS(=O)(=O)c2ccc(NC(=O)CSC3=NCCS3)cc2)nc(OC)n1,14.3%
4,Oc1cccc(/C=N/Nc2ccc(Cl)nn2)c1,9.59%
5,COc1ccc(-n2c(-c3ccc(Cl)cc3Cl)n[nH]c2=S)c(OC)c1,11.7%
6,CC(=O)NC1CC2CCCC(C1)N2CC(=O)NCc1ccc(F)cc1 (stereo not drawn),7.83%
7,COc1ccc(NS(=O)(=O)c2cc3c4c(c2)C(C)C(=O)N4CCC3)cc1 (stereo not drawn),13.5%
8,Cc1ccc(NC(=O)Cn2ncn3c(cc4ccccc43)c2=O)c(C)c1,8.22%
9,CN(C)c1ccc(C(=O)N/N=C/c2ccccn2)cc1,6.32%
10,Cc1n[nH]c(=O)nc1NCCN(C)C,17.4%
11,Cc1ccc(C)c(NC(=O)CCC(=O)N/N=C/c2cccnc2)c1,13.7%
12,CC(=O)C1=NOC(CNC(=O)c2c(-c3ccccc3Cl)noc2C)C1 (stereo not drawn),12.8%
13,C[C@H](NC(=O)c1[nH]cnc1C(=O)Nc1ccc(CNC(=O)OC(C)(C)C)cc1)C(=O)OC(C)(C)C,12.8%
14,CCS(=O)(=O)c1ccc(-c2cccc(NC(=O)COc3ccc(Cl)cc3)c2)nn1,7.79%
15,COC(=O)c1cccc(CSc2nnc(C)s2)c1,8.74%
16,CCCC(=O)Nc1nnc(-c2cccc(OCC)c2)s1,7.97%
17,CCn1c(C)cc(/C=C2/SC(=S)N(CC(=O)O)C2=O)c1C,10.8%
18,CCCn1c(N)c(C(=O)CSc2ncn[nH]2)c(=O)n(C)c1=O,17.2%
19,NS(=O)(=O)c1ccc(NC(=O)COC(=O)CCc2ccc(S(=O)(=O)N3CCOCC3)cc2)cc1,7.23%
20,CS(=O)(=O)c1cnc2c(-c3ccsc3)cnn2c1N,13.3%
21,COCCn1c(SCC(=O)NNC(=O)Cc2ccccc2)nc2ccccc2c1=O,11%
22,C#CCN1CCN(c2ccc(F)cc2)CC1,3.75%
23,CCN(Cc1ccccc1)C(c1ccncc1)c1nnnn1C(C)(C)C (stereo not drawn),6.1%

row,SMILES,"hERG current change (%, negative = inhibition) at 1uM"
1,O=C(c1sc2ccccc2c1Cl)N(Cc1ccco1)C1CCS(=O)(=O)C1 (stereo not drawn),7.91%
2,CCOC(=O)C1CN(C)CCC1=O.Cl (stereo not drawn),3.37%
3,O=C(c1cccs1)N1CCCC1,10.5%
4,Cc1ccc(-c2csc(NC(=O)CCNC(=O)c3ccco3)n2)cc1,9.23%
5,CCOC(=O)c1[nH]ncc1CN1CCC(Cc2ccccc2)(C(=O)OCC)CC1,8.85%
6,COc1ccc(S(=O)(=O)N(C(=O)C(C)C)c2ccc3oc(=O)sc3c2)cc1,6.07%
7,Brc1cccc(OCCCN2CCCCCC2)c1.O=C(O)C(=O)O,-40.9%
8,CC(=O)c1cccc(NC(=O)CSc2nc(=O)n(CCCN3CCOCC3)c3c2CCC3)c1,1.6%
9,Cc1c(NC(=O)c2ccc(S(=O)(=O)N3CCOCC3)cc2)c(=O)n(-c2ccccc2)n1C,8.06%
10,O=C(OCCCN1CCCCC1)c1ccc(O)cc1,-17.7%
11,CSCCC(NC(=O)c1ccccc1)C(=O)NC1CC1 (stereo not drawn),17.4%
12,O=C(CSc1nc2c(cnn2-c2ccccc2)c(=O)[nH]1)N1CCCCC1,1.88%
13,Cc1cccc(N2CC(C(=O)Nc3nc4ccc(S(C)(=O)=O)cc4s3)CC2=O)c1C (stereo not drawn),12.3%
14,CCNC(=O)NCCNC(=O)c1cc(OCC(F)(F)F)ccc1OCC(F)(F)F,9.06%
15,CCCCCc1c(O)nc(SCCN(CC)CC)[nH]c1=O.Cl,6.75%
16,CCOCCCNc1nc2c(c(=O)[nH]c(=O)n2C)n1CCCc1ccccc1,-1.39%
17,O=C(Cc1ccccc1)NN1C(=O)c2ccccc2C1=O,-2.73%
18,O=C(C1CCN(S(=O)(=O)c2ccccc2)CC1)N1CCCCCC1,-0.696%
19,COc1ccc2c(c1)c1c3n2CCN(C)C3=NCC1.Cl,-54.9%
20,Cc1cccc(NC(=O)C2C3C=CC(C4CC34)C2C(=O)O)c1 (stereo not drawn),3.09%
21,CC1(C)COC2(OC1)C(=O)N(CN1CCOCC1)c1ccccc12,6.19%
22,CCCn1c2c(c(O)c(C(=O)NCc3ccccc3)c1=O)CCCC2,16.1%
23,Cc1ccc(-c2nnc(SCC(=O)Nc3nccs3)n2N)cc1,-11.9%

row,SMILES,"hERG current change (%, negative = inhibition) at 1uM"
1,COc1cc(C)ccc1Oc1ncnc(N)c1[N+](=O)[O-],10.5%
2,Cc1ccc(Cl)cc1N1CCN(C(c2cccnc2)c2nnnn2C2CCCCC2)CC1 (stereo not drawn),6.68%
3,Cc1ccc(CNc2ccc(N3CCOCC3)c(Cl)c2)cc1,9.05%
4,Cc1ccc2nc(N3C(=O)C(O)=C(C(=O)c4ccco4)C3c3ccc(C)o3)sc2c1.O=C(O)C(=O)O (stereo not drawn),7.32%
5,CCCCNC(=O)CN(Cc1ccco1)S(=O)(=O)c1ccc(C(C)=O)cc1,-6.69%
6,Cc1cccc(NS(=O)(=O)c2ccc3c(c2)NC(=O)CC(=O)N3)c1,18.4%
7,Oc1cccc2ccc[n+](CC(O)Cn3c4ccccc4c4ccccc43)c12.[Cl-] (stereo not drawn),6.01%
8,Cc1ccc(O)c(C(=O)c2cc(C#N)c(=O)n(Cc3ccccc3)c2)c1,12.2%
9,COc1cccc(CCNC(=O)CCCC(=O)c2ccccc2)c1,9.09%
10,O=C(N[C@H](Cc1cc(=O)[nH]c2ccccc12)C(=O)O)c1ccc(Cl)cc1,10.3%
11,CN(Cc1ccccc1O)CC1CCCN(CCc2ccc(Cl)cc2)C1 (stereo not drawn),-40.3%
12,CCCc1cc(=O)oc2cc(C)cc(OCC(=O)NC3CCN(Cc4ccccc4)CC3)c12,-0.282%
13,CCOC(=O)c1ccc(-n2cncn2)nc1,1.14%
14,CC(=O)Oc1c(C)cc(Cl)cc1C(=O)Nc1ccc([N+](=O)[O-])cc1Cl,17.9%
15,CCc1ccc(-c2csc(NC(=O)C3CCCO3)c2C(=O)OC(C)C)cc1 (stereo not drawn),12.1%
16,C/C(=C\c1ccccc1)C(=O)NCc1ccco1,21%
17,CCOC(=O)CC1(c2ccc(OC)c(OC)c2)C(=O)c2ccccc2C1=O,10.7%
18,CCOC(=O)Cn1c2c(c(=N)c3c1CCC3)CCC2.Cl,10.2%
19,CC1CCCCN1C(=O)CSc1nc(N)nc(N)n1 (stereo not drawn),19.9%
20,O=C(COc1cccc(Oc2ccccc2)c1)Nc1ncccn1,15.3%
21,CSc1nnc(NC(=O)c2cc(=O)c3cc(C)cc(C)c3o2)s1,18.5%
22,CS(=O)(=O)c1ccc(NC(=O)c2ccc3c(c2)S(=O)(=O)N=C2CCCCCN23)cc1,5.48%
23,Nn1cnc2scc(-c3ccco3)c2c1=O,14.7%

row,SMILES,"hERG current change (%, negative = inhibition) at 1uM"
1,CCN1CCN(Cc2ccc(NC(=O)c3cc(NC(=O)N4CCNC4=O)cc(OC)c3)cc2C(F)(F)F)CC1,12%
2,Nc1ccc(-n2nc3ccccc3n2)cc1,8.64%
3,CC(=O)N1CC2([N+](=O)[O-])CN(C(C)=O)CC([N+](=O)[O-])(C1)C2(C)C,5.81%
4,Cc1cc(Nc2ccc(F)cc2C)n2nc(C)nc2n1,1.33%
5,CCOC(=O)N1CCC(NC(=O)CSc2cc(=O)n(C)c3ccccc23)CC1,-0.47%
6,CC1CCCCN1S(=O)(=O)c1ccc(S(=O)(=O)N(Cc2ccccc2)Cc2ccco2)cc1 (stereo not drawn),7.02%
7,CC1Cc2cccc3c(O)c(C(=O)c4nn[nH]n4)c(=O)n1c23 (stereo not drawn),13.5%
8,Cc1ccc(S(=O)(=O)NCC(=O)N(CC(=O)NCc2ccco2)Cc2ccc3c(c2)OCO3)cc1,-5.71%
9,c1ccc2c(CN3CCCCCCC3)c[nH]c2c1,0.417%
10,O=S(=O)(c1ccc(NC(=S)NCCC(c2ccccc2)c2ccccc2)cc1)N1CCOCC1,8.57%
11,Cc1nnc(SCC(=O)Nc2sc3c(c2C(N)=O)CCCC3)[nH]c1=O,10.4%
12,N#Cc1cc(-c2ccccc2)nnc1Sc1ccc(Cl)cc1,-3.49%
13,CC(=O)Nc1ccc([N+](=O)[O-])cn1,18.6%
14,COCCCN1C(=O)C(O)=C(C(C)=O)C1c1ccccn1.Cl (stereo not drawn),8.91%
15,O=C1/C(=C/c2cccs2)NC(=S)N1C1CC1,-1.49%
16,CCc1ccccc1OCc1nc2ccc(S(=O)(=O)N3CCOCC3)cc2[nH]1,-15%
17,CC(=O)/C(=C\Nc1ccc(OCc2ccccc2)cc1)c1ccccc1,6.32%
18,COc1ccccc1OCCNC(=O)c1ccc(Br)cc1,10.6%
19,CC1=CC(C)[C@H](/C=N/n2c(=O)[nH]c3c([nH]c4ccc(C)cc43)c2=O)C(C)C1 (stereo partly drawn),-5.91%
20,Cc1cccc(C(=O)NCc2nnc(SCC(=O)N3CCN(c4ccccc4)CC3)n2C)c1,11.9%
21,CCN(c1ccc(OC)cc1)S(=O)(=O)c1nnc(NC(=O)COc2ccc(C)cc2)s1,12.4%
